Test results taken from PubChem BioAssay AID1240 (Sanford-Burnham Center for Chemical Genomics, 2008).
In all, about 50,000 compounds went through this assay and about 800 (1.6%) showed an effect of 50% or more. The list shows a part of the results.

biological target: Bcl-2-like protein 10 (Homo sapiens) (UniProt Q9HD36); assay: Phenotype converters, Bcl-B/TR3 peptide binding displacement, primary biochemical FP (AID 1240); settings: GST-Bcl-B / FITC-TR3 peptide fluorescence polarization; stronger effect = higher value; compound at 3.75 mg/L;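 also: 0% = Bcl-B with tracer peptide and DMSO and 100% = tracer peptide lacking Bcl-B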
Chain of UniProt Q9HD36 (Q9HD36 whole entry, looked up): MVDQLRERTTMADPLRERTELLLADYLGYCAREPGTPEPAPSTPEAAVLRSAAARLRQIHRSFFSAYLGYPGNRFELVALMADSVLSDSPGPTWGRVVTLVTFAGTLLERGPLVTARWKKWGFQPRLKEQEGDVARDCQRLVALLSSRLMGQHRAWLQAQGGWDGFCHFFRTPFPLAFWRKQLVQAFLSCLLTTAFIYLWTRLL

Row | SMILES | displacement [%]
1 | O=C(O)/C=C/C(=O)Nc1ccc(Oc2ccc(Oc3ccc(NC(=O)/C=C/C(=O)O)cc3)cc2)cc1 | -5.4
2 | CCOc1cc(/C=C2\C(=O)ON=C2C)ccc1O | 8.8
3 | O=C(Nc1ccc(OC(F)(F)F)cc1)C(c1ccccc1)c1ccccc1 | 8.4
4 | NC(=O)C1(N2CCCCC2)CCN(C2CC(=O)N(c3ccc(Br)cc3)C2=O)CC1 (centres undefined) | -5.8
5 | Clc1ccc(OCCCCN2CCCC2)cc1 | 11.1
6 | COc1cccc(C(O)c2nc3ccccc3n2C(C)C)c1 (centres undefined) | -5.4
7 | O=c1c2ccccc2nc(/C=C/c2ccc3c(c2)OCO3)n1-c1cccc2ccccc12 | 78.1
8 | Brc1ccc(OCCCN2CCCC2)cc1 | -3.3
9 | O=C(CN(c1ccc(Br)cc1)S(=O)(=O)c1ccccc1)NCCSc1nc2ccccc2s1 | 10.7
10 | O=C1NC(=O)N(c2ccc(Cl)cc2)C(=O)/C1=C/c1ccc(-c2ccccc2C(=O)O)o1 | 7.7
11 | Cc1ccc(OCC(=O)NCc2ccccn2)c(C)c1 | -3.8
12 | O=C(CN(c1ccccc1)S(=O)(=O)c1ccccc1)NCc1ccccn1 | -11.6
13 | CC(=O)Nc1cccc(NC(=O)c2cc(-c3ccccc3)nc3ccccc23)c1 | 16.7
14 | Cc1oc2cc(OCC(=O)OCc3ccccc3)ccc2c(=O)c1-c1nc2ccccc2s1 | 11.3
15 | COc1ccc(NC(=O)COc2cccc(C)c2)c([N+](=O)[O-])c1 | -1
16 | CC(C)(C)c1ccc(-c2nc3cc(NC(=S)NC(=O)c4ccco4)ccc3o2)cc1 | 9.2
17 | COc1ccc2c(c1)C(C)CC(C)(C)N2C(=O)NC1CCCCC1 (centres undefined) | 8
18 | CCOc1ccc(-n2sc3c(c2=S)-c2cc(C)cc(C)c2NC3(C)C)cc1 | -3.8
19 | O=C(/C=C/Nc1ccccc1O)c1ccc(-c2ccccc2)cc1 | 3.7
20 | Cc1ccc(/C=N/NC(=O)COc2c(Br)cc(Br)cc2Br)cc1 | 1.8
21 | COc1ccccc1NC(=O)C1=C(C)NC(=O)NC1c1cc(OC)c(OC)c(OC)c1 (centres undefined) | 3.6
22 | O=C(c1nn2c(c1Cl)NC(c1ccc(Cl)cc1)CC2C(F)(F)F)N1CCN(c2ccccc2)CC1 (centres undefined) | 39.1

Row | SMILES | displacement [%]
23 | COc1ccccc1NC(=O)/C(=C/c1ccco1)NC(=O)c1ccc(C)cc1 | -5
24 | O=[N+]([O-])c1cccc(-c2ncnn2-c2ccccc2)c1 | 6.3
25 | O=C(Nc1cccc(-c2nc3ccccc3o2)c1)c1cc2ccccc2o1 | 0.8
26 | Cc1ccnc(NS(=O)(=O)c2ccc(N3C(=O)c4ccccc4C3=O)cc2)n1 | 14.1
27 | O=[N+]([O-])c1cccc(-c2ccc(CO)o2)c1 | 7.1
28 | CCCOc1ccc(C(=O)Nc2ccccc2C(=O)OC)cc1 | 11.8
29 | Cc1ccc(CNC(=O)/C=C/c2ccccc2)cc1 | 4
30 | CC(=O)NS(=O)(=O)c1ccc(NC(=O)c2ccc([N+](=O)[O-])c(C)c2)cc1 | -8.5
31 | CC1=C(C(=O)OC(C)C)C(c2ccccc2)C2=C(CCCC2=O)N1 (centres undefined) | 4.2
32 | C=CCn1c2ccccc2c2nnc(SC)nc21 | 0.3
33 | O=C1OC(c2ccc(-c3ccccc3)cc2)c2ccccc21 (centres undefined) | -7.4
34 | CCCCOc1ccc(-c2nc(C3CCCCC3)no2)cc1 | 13.5
35 | CC1=NN(c2cccc(C(=O)O)c2)C(=O)/C1=C\c1ccc(N(C)C)cc1 | 0.7
36 | COc1cccc(NC(=O)c2sc3ccccc3c2Cl)c1 | 1
37 | CC(C)NC(=O)C1CC1(c1ccccc1)c1ccccc1 (centres undefined) | 4.7
38 | C=CCc1ccc(OCCCCN2CCC(C)CC2)c(OC)c1 | 13.8
39 | O=C(COc1ccc(F)cc1)NC(C(=O)O)C12CC3CC(CC(C3)C1)C2 (centres undefined) | -12.9
40 | CC1CCN(S(=O)(=O)c2ccc(NC(=O)c3ccc(-c4ccccc4)cc3)cc2)CC1 | -1.5
41 | CO/C(=N\S(=O)(=O)c1ccc(Cl)cc1)c1ccccc1 | 11.1
42 | COc1ccc(CC(=O)Nc2ccc(-c3ccc(NC(=O)Cc4ccc(OC)cc4)c(OC)c3)cc2OC)cc1 | -9.2
43 | O=C(Nc1ccc(OC(F)(F)F)cc1)c1cccc(Br)c1 | -2.2
44 | CCn1c(/C=N/NC(=O)c2ccccc2)nc2ccccc21 | 7.2

Row | SMILES | displacement [%]
45 | CC(=O)c1cccc(NC(=O)/C(=C/c2ccc(Br)cc2)NC(=O)c2ccccc2)c1 | -5.8
46 | Cc1cccc(C(=O)Oc2ccc(/C=C3/N=C(c4ccccc4)OC3=O)cc2)c1 | 0.5
47 | O=c1[nH][nH]c(=O)c2cc(Oc3ccc([N+](=O)[O-])cc3)ccc12 | 3.2
48 | COc1ccc(C(=O)CSc2nc(C)cc(C)n2)cc1 | 10.5
49 | O=C(Nc1ccc(S(=O)(=O)Nc2nccs2)cc1)C1CC1 | -5.1
50 | CCN(CC)c1ccc(/C=C2/C(=O)NN(c3ccccc3)C2=O)cc1 | 13
51 | COC(=O)c1ccccc1NC(=S)NC(=O)c1ccc(Cl)cc1 | -1.9
52 | O=C(Nc1ccc2c(c1Cl)C(=O)c1ccccc1C2=O)c1ccccc1 | 3.9
53 | Cc1cc(Cl)ccc1OC(=O)CCN1C(=O)c2ccccc2C1=O | 9.2
54 | COc1ccc(N2C(=O)NC(=O)/C(=C\c3ccc(C)cc3)C2=O)cc1 | -6
55 | COC(=O)C(=C/C(Cl)=C/N(C)C)C(=O)OC | 13
56 | OC(COCc1ccccc1)CN1CCN(c2ccc(F)cc2)CC1 (centres undefined) | 6.9
57 | COc1cc(C2C(C(=O)/C=C/c3ccccc3)=C(O)C(=O)N2c2ccccc2)ccc1O (centres undefined) | -3.3
58 | O=C(N/N=C/c1ccncc1)c1c[nH]c2ccccc12 | 5.7
59 | N/C(=N\OC(=O)c1ccccc1F)c1ccc(Cl)cc1 | 9.6
60 | CCC(C)N=CC1=C(O)C(C(=O)OC)C(C)(C)CC1=O (centres undefined) | 1.4
61 | CC1=C(C(=O)Nc2cc(Cl)ccc2C)C(c2ccc(Br)cc2)NC(=O)N1 (centres undefined) | 12.6
62 | Oc1ccc(Br)cc1CN1CCN(Cc2ccccc2C(F)(F)F)CC1 | 11.6
63 | Cc1ccccc1OCCOc1cccc(/C=C2/SC(=S)N(C)C2=O)c1 | 1.2
64 | C=CCN1C(=O)/C(=C\c2ccccc2C)SC1=S | 4.5
65 | COCCOC(=O)c1ccc(NC(=O)COc2ccc(Br)cc2)cc1 | -6
66 | CCc1ccccc1N(CC(=O)Nc1ccc(C)c(C)c1)S(C)(=O)=O | 4.5

Row | SMILES | displacement [%]
67 | Cc1cc(C)nc(NS(=O)(=O)c2ccc(N/C=C\C(=O)c3cccs3)cc2)n1 | 78.5
68 | CC1CC(CCN)(c2ccccc2)C(C)CN1C (centres undefined) | -6
69 | COC(=O)c1cc(C(=O)Nc2ccc(Br)c(C)c2)cc([N+](=O)[O-])c1 | 4.6
70 | O=C1NC(=S)N(c2ccc(Cl)cc2)C(=O)/C1=C/c1ccc(-c2ccc(C(=O)O)cc2)o1 | -9.2
71 | N[n+]1cnn(CC(=O)c2ccccc2Br)c1 | 0.1
72 | Cc1sc(NC(=O)CN2CCOCC2)c(C(=O)c2ccccc2)c1C | 16.1
73 | O=C1CC(c2ccccc2)=NN1c1cccc([N+](=O)[O-])c1 | 14.8
74 | O=C(O)CCCCCNS(=O)(=O)c1ccc2c(c1)OCCO2 | 9.8
75 | CCCC(=O)NNC(=O)c1ccccc1C | -5.7
76 | Cc1ccc(NC2CC(C)N(C(=O)c3cccc(F)c3)c3ccc(C)cc32)cc1 (centres undefined) | -7.1
77 | CC1(C)CC(=O)C=C(Nc2ccc(O)cc2)C1 | 8.9
78 | COCCCNC(=O)Cc1ccccc1[N+](=O)[O-] | 1.6
79 | O=c1oc2ccc([N+](=O)[O-])cc2cc1-c1nc(-c2ccc(Br)cc2)cs1 | -4.2
80 | COc1ccc(C2C(C#N)=C(N)OC3=C2C(=O)CC(c2ccccc2Cl)C3)cc1 (centres undefined) | -5.2
81 | O=C(NCCCn1ccnc1)Nc1ccc(Cl)c(Cl)c1 | -2.5
82 | Cc1cccc(C(=O)NN2CCN(C)CC2)c1 | -1
83 | COc1ccc(CN2CCN(Cc3ccccc3C(F)(F)F)CC2)cc1Br | 0.6
84 | C=CCN1C(=O)/C(=C\c2ccc(OCCOc3cccc(OC)c3)cc2)SC1=S | -1.8
85 | O=C(/C=C/c1ccc([N+](=O)[O-])cc1)Nc1ccc(F)cc1 | -2.7
86 | C/C(=N/NC(=O)c1ccccc1N)c1cccs1 | -12.6
87 | Cc1sccc1/C=N/NC(=O)C1CC1 | 3
88 | CC(O)C(NC(=S)NCc1ccccc1)C(=O)O (centres undefined) | -1.1

Row | SMILES | displacement [%]
89 | Cc1cc(C)c(S(=O)(=O)NNc2ccccc2)c(C)c1 | -1.6
90 | COc1cc2ccccc2cc1C(=O)Nc1ccc(S(=O)(=O)Nc2nc(C)cc(C)n2)cc1 | 1.2
91 | COc1ccc(NC(=O)C(=O)NCCN2CCN(S(=O)(=O)c3ccccc3)CC2)cc1 | 9.5
92 | Cc1cc(Cl)ccc1OCC(O)CN1C(C)CCCC1C (centres undefined) | 0.8
93 | Cc1cc(Br)c(-c2ccc(/C=C3/SC(=S)NC3=O)o2)cc1C | 20.9
94 | CC1(C)CC(=O)C2=C(C1)NC1=C(C(=O)CC(C)(C)C1)C2c1ccc(I)cc1 | -6.5
95 | CC1=C(C)CC(C(=O)NCCc2ccc(S(N)(=O)=O)cc2)C(C(=O)O)C1 (centres undefined) | 14.3
96 | Cc1cccc(C(=O)N2CCCCCC2)c1 | -4.2
97 | COC(=O)C1=C(C)N(Cc2ccco2)C(=O)/C1=C\c1cccc([N+](=O)[O-])c1 | -3.4
98 | CC(C)C(NC(=O)c1ccccc1)C(=O)OCC(=O)Nc1ccc(S(N)(=O)=O)cc1 (centres undefined) | 13.1
99 | O=C1NC(=S)N(c2ccccc2F)C(=O)/C1=C/c1ccc(Sc2ccccc2)o1 | 14.2
100 | Cc1cccc(-c2nnc(NC(=O)Nc3ccc(Cl)c(Cl)c3)s2)c1 | 11.6
101 | O=C(O)COc1ccccc1/C=N/NC(=O)COc1c(Br)cc(Br)cc1Br | 6.3
102 | C=CCN1C(=O)/C(=C\c2ccc3c(c2)OCO3)SC1=Nc1ccccc1 | 1.6
103 | COC(=O)c1cc(C(=O)N2CC(C)OC(C)C2)cc([N+](=O)[O-])c1 (centres undefined) | 10.9
104 | C/C(=C\C(=O)c1ccccc1)Nc1ccc(Br)c(Cl)c1 | 5
105 | Cc1cc2nc3s/c(=C/c4ccccc4F)c(=O)n3c2cc1C | 10.6
106 | CCOCCOC(=O)c1ccc(NC(=O)c2cccnc2)cc1 | 14
107 | Cc1ccnc(NC(=O)COc2cc(C)ccc2C(C)C)c1 | -15.3
108 | CCOC(=O)c1sc(NC(=O)CC(c2ccccc2)c2ccccc2)c(C(N)=O)c1C | -1.5
109 | COc1cc(C2Nc3ccccc3NC3=C2C(=O)CC(c2ccccc2)C3)cc(Cl)c1O (centres undefined) | -0.9
